Experimental data as given in PubChem BioAssay AID1345082 (National Center for Advancing Translational Sciences (NCATS), 2018).
The campaign covered roughly 94,000 compounds. About 4,000 (4.3%) were called active. The inconclusive results got no clear call from the source; some entries with a clear call stand among them for comparison. Calls follow the shape of the dose curve; as a rule, active = well fitted inhibition curve with a large enough effect; inconclusive = small, poorly fitted or top-dose-only effect; inactive = no such curve, though single readings can be large or run the other way. A potency beside an inconclusive call is a rough fit, not a confirmed value.

assay: Cytotoxic Profiling in NIH 3T3 Cell Line of Diverse Libraries Using Quantitative High-Throughput Screening; conditions: NIH 3T3 viability, CellTiter-Glo ATP luminescence, 48-72 h; activity change, negative = cytotoxicity: at 96.7 µM (top of the series); series mostly up to 96.7 µM; also: nearly all actives have a fitted effect of over 55% in size
How it was run: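 First NIH 3T3 cells are plated at 400 cells/well; next compound is pinned in; then plates incubate 48 or 72 hr at 37 °C; finally CellTiter-Glo is added and luminescence read after 10 min.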
% is scaled to controls: 0 for no effect and ±100 for the full control effect; potency is read from the fitted curve at half-maximal effect; tags tell the direction and shape of the fitted curve.

| SMILES | activity change, negative = cytotoxicity | Potency | outcome |
| --- | --- | --- | --- |
| O=C(NCc1cc(F)cc(F)c1)C1CCN(C(=O)c2ncn3c2COC(c2ccc(F)cc2)C3)CC1 (stereo unspecified) | inactive: -0.208% | – | – |
| COc1ccc2[nH]c3c(c2c1)CCNC31CCN(C(=O)CC(C)C)CC1 | inactive: -23.7% | – | – |
| O=C(c1ccc(OC(F)(F)F)cc1)N1CCN(c2cc(-c3ccccc3)[nH]n2)CC1 | – | inconclusive: 39.8 µM [inhibitor, partial curve, poor fit] | – |
| CCNC(=O)CCc1c(C)nn(-c2cccc(C)c2)c1Oc1ccccc1C | – | inconclusive: 50.1 µM [inhibitor, partial curve, poor fit] | – |
| CC1(C)Cc2c(cnn2-c2ccc(F)cc2)C(NC(=O)c2cc(C3CC3)[nH]n2)C1 (stereo unspecified) | – | inconclusive: 56.2 µM [inhibitor, partial curve, poor fit] | – |
| O=C1N(c2ccccc2)c2ccccc2C12CCN(Cc1ccc(C(F)(F)F)cc1)C2 (stereo unspecified) | – | inconclusive: 44.7 µM [inhibitor, partial curve, poor fit] | – |
| CCC1Oc2ccc(NC(=O)Cc3ccccc3)cc2CN(Cc2cccc(OC)c2)C1=O (stereo unspecified) | – | inconclusive: 44.7 µM [inhibitor, partial curve, poor fit] | – |
| Cc1csc(NC(=O)c2ccc3c(c2)OCCN(CCC(F)(F)F)C3)n1 | – | inconclusive: 89.1 µM [inhibitor, partial curve, poor fit] | – |
| Cc1ccc(C2Cn3nnc(C(=O)N4CCC(C(=O)NCc5ccco5)CC4)c3CO2)cc1 (stereo unspecified) | – | – | inactive |
| c1cncc(COc2cc3c(cn2)NCCN(Cc2ccc4[nH]ccc4c2)C3)c1 | – | inconclusive: 79.4 µM [inhibitor, partial curve] | – |
| O=C1CO[C@H]2CCN(Cc3ccccn3)CC[C@@H]2N1CCc1cccnc1 | – | inconclusive: 112 µM [inhibitor, single point] | – |
| Cc1nn(-c2ccccc2)c2c1C(C)N(C1CCCN(C(=O)c3ccncc3)C1)C2=O (stereo unspecified) | – | inconclusive: 56.2 µM [inhibitor, partial curve, poor fit] | – |
| CN(C)c1ccc(CN2CCc3nc(C4CC4)nc(-c4ccc(O)cc4)c3CC2)cc1 | – | inconclusive: 56.2 µM [inhibitor, partial curve, poor fit] | – |
| Cc1ccc(-c2ccc(N)nc2)c2cccnc12 | – | inconclusive: 79.4 µM [inhibitor, single point] | – |
| COc1cccc(N2C(=O)NC(=NC3CCCC3)C23CCCN(Cc2ccsc2)C3)c1 (stereo unspecified) | – | inconclusive: 44.7 µM [inhibitor, partial curve, poor fit] | – |
| COCCNC(=O)C1CCCN1Cc1cccc(-c2ccc(C)c(Cl)c2)c1 (stereo unspecified) | – | active: 35.5 µM | – |
